Experiment in all cases: Viability of human cancer cell lines after 72 h of drug (GDSC screen)
Compound in one experiment: COc1cc(C)c(Sc2cnc(NC(=O)c3ccc(CNC(C)C(C)(C)C)cc3)s2)cc1C(=O)N1CCN(C(C)=O)CC1 [BMS-509744]
Conditions: top dose 10.24 µM; top dose inferred. The protocol: (§1)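 Human cancer cell lines in 384-well plates, medium with 10% serum, drug for 72 h over a 256-fold dose range (nine 2-fold or five 4-fold steps up to the top dose). Adherent lines were fixed and stained with the nucleic acid dye Syto60, suspension lines read with resazurin; signal relative to control wells, capped at 0 and 100%. One two-parameter sigmoid per drug and line, fitted in a mixed model over all curves with the slope shared within a line.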

Compound in a further experiment: Cn1cncc1[C@@](N)(c1ccc(Cl)cc1)c1ccc2c(c1)c(-c1cccc(Cl)c1)cc(=O)n2C [Tipifarnib]
The conditions noted are these: top dose 16 µM; top dose inferred. How it is done: as §1

Compound in the next experiment: COc1ccccc1S(=O)(=O)Nc1ccc2c(c1)CN(C)C(=O)N2 [PFI-1]
The conditions noted are these: top dose 10 µM; top dose inferred. The protocol:
as §1

Compound in another experiment: CCc1cc(Nc2nccc(-c3c(-c4ccc(OC)c(C(=O)Nc5c(F)cccc5F)c4)nc4ccccn34)n2)c(OC)cc1N1CCC(N2CCN(S(C)(=O)=O)CC2)CC1 [GSK-1904529A]
Conditions: top dose 1.024 µM; top dose inferred. The protocol:
as §1

Compound in a further experiment: CCN1CCN(Cc2ccc(NC(=O)c3ccc(C)c(Oc4ccnc5[nH]ccc45)c3)cc2C(F)(F)F)CC1 [NG-25]
Conditions: top dose 10.24 µM; top dose inferred. How it is done: as §1

Lines with a small IC50 respond at low doses; a limit (>, <) means that the fit lies beyond the doses tested. For AUC the same curve is integrated over the 256-fold range of doses and scaled to a fraction; values near 1 show little effect. Where the top dose is marked as inferred, it was calculated from the reported fits.

The IC50 is the midpoint of a concentration-inhibition curve. As to SIMA (neuroblastoma, adherent), the AUC with BMS-509744 was found to be 0.913; with Tipifarnib it was 0.818; with PFI-1 it was 0.898; with GSK-1904529A, 0.984; with NG-25 it was 0.734. For the same cell line, the half-maximal inhibitory concentration (IC50) was > 10.2 µM with BMS-509744; 10.5 µM with Tipifarnib; > 10 µM in the experiment with PFI-1; > 1.02 µM with GSK-1904529A; 3.3 µM with NG-25.

For A704 (kidney, adherent), the AUC stood at 0.955 with BMS-509744; 0.821 in the experiment with Tipifarnib; 0.931 with PFI-1; 0.977 with GSK-1904529A; 0.727 with NG-25. For the same cell line, the IC50 was > 10.2 µM in the experiment with BMS-509744; 8.89 µM in the experiment with Tipifarnib; > 10 µM with PFI-1; > 1.02 µM with GSK-1904529A; 2.75 µM with NG-25.

On to HCE-4 (oesophagus, adherent), for which the AUC came out at 0.934 with BMS-509744; 0.642 with Tipifarnib; 0.971 with PFI-1; 0.909 in the experiment with GSK-1904529A; 0.991 with NG-25. In addition, the IC50 with BMS-509744 was > 10.2 µM; with Tipifarnib it was 2.31 µM; with PFI-1 it was > 10 µM; with GSK-1904529A it was > 1.02 µM; in the experiment with NG-25, > 10.2 µM.

For the cell line RPMI-8226 (myeloma, suspension), the AUC with BMS-509744 is 0.901; in the experiment with Tipifarnib, 0.841; in the experiment with PFI-1, 0.791; in the experiment with GSK-1904529A, 0.987; with NG-25, 0.933. The IC50 was 10.2 µM in the experiment with BMS-509744, 3.85 µM with PFI-1, > 1.02 µM with GSK-1904529A and > 10.2 µM in the experiment with NG-25.

Take RS4-11 (leukaemia, suspension): the AUC with BMS-509744 worked out at 0.827; in the experiment with Tipifarnib, 0.58; with PFI-1 it was 0.94; with GSK-1904529A, 0.979; with NG-25, 0.86. Also, the IC50 is 5.56 µM in the experiment with BMS-509744; 1.62 µM in the experiment with Tipifarnib; > 10 µM with PFI-1; > 1.02 µM with GSK-1904529A; 7.43 µM with NG-25.

On to TGBC1TKB (biliary tract, adherent), for which the AUC with BMS-509744 stood at 0.908; with Tipifarnib, 0.881; with PFI-1 it was 0.962; with GSK-1904529A, 0.988; in the experiment with NG-25, 0.859. Besides, the IC50 with BMS-509744 is > 10.2 µM; with Tipifarnib, > 16 µM; with PFI-1, > 10 µM; with GSK-1904529A it was > 1.02 µM; with NG-25, 8.37 µM.

Consider L-428 (Hodgkin lymphoma, suspension), for which the AUC was determined as 0.973 in the experiment with BMS-509744; 0.788 with Tipifarnib; 0.943 with PFI-1; 0.993 with GSK-1904529A; 0.983 with NG-25. Moreover, the IC50 with BMS-509744 was > 10.2 µM; in the experiment with Tipifarnib, 6.1 µM; in the experiment with PFI-1 it was > 10 µM; with GSK-1904529A, > 1.02 µM; with NG-25, > 10.2 µM.

As to “KARPAS-45 (lymphoblastic leukaemia, suspension)”, the AUC worked out at 0.869 with BMS-509744; 0.719 with Tipifarnib; 0.823 with PFI-1; 0.992 in the experiment with GSK-1904529A; 0.517 in the experiment with NG-25. Further, the IC50 was 6.87 µM with BMS-509744; 3.67 µM in the experiment with Tipifarnib; 4.64 µM in the experiment with PFI-1; > 1.02 µM in the experiment with GSK-1904529A; 0.708 µM in the experiment with NG-25.

“EM-2 (chronic myeloid leukaemia, suspension)”: the AUC with BMS-509744 came to 0.903; with Tipifarnib, 0.79; in the experiment with PFI-1, 0.792; with GSK-1904529A it was 0.977; with NG-25, 0.07. The IC50 is > 10.2 µM with BMS-509744; 8.21 µM in the experiment with Tipifarnib; 5.21 µM with PFI-1; > 1.02 µM in the experiment with GSK-1904529A; < 0.04 µM with NG-25.

In the case of “NCI-H69 (small cell lung carcinoma, suspension)”, the AUC was 0.955 in the experiment with BMS-509744; 0.932 with Tipifarnib; 0.887 in the experiment with PFI-1; 0.981 with GSK-1904529A; 0.985 with NG-25. Besides, the IC50 is > 10.2 µM in the experiment with BMS-509744; > 16 µM in the experiment with Tipifarnib; > 10 µM with PFI-1; > 1.02 µM with GSK-1904529A; > 10.2 µM with NG-25.

On to “NCI-H847 (small cell lung carcinoma, adherent)”, for which the AUC was 0.953 in the experiment with BMS-509744; 0.073 with Tipifarnib; 0.836 in the experiment with PFI-1; 0.973 with GSK-1904529A; 0.835 with NG-25. The IC50 with BMS-509744 is > 10.2 µM; in the experiment with Tipifarnib it was < 0.0625 µM; with PFI-1, 4.93 µM; with GSK-1904529A, > 1.02 µM; with NG-25, 5.02 µM.

Consider “KARPAS-620 (haematopoietic neoplasm, suspension)”, for which the AUC with BMS-509744 is 0.742; in the experiment with Tipifarnib it was 0.435; with PFI-1 it was 0.768; with GSK-1904529A it was 0.982; with NG-25, 0.245. For the same cell line, the IC50 is 2.78 µM in the experiment with BMS-509744; 0.681 µM in the experiment with Tipifarnib; 3.24 µM with PFI-1; > 1.02 µM in the experiment with GSK-1904529A; 0.135 µM with NG-25.

On to “JiyoyeP-2003 (Burkitt lymphoma, suspension)”, for which the AUC with BMS-509744 worked out at 0.972; in the experiment with Tipifarnib, 0.735; with PFI-1 it was 0.88; with GSK-1904529A it was 0.991; in the experiment with NG-25, 0.721. Further, the IC50 was > 10.2 µM in the experiment with BMS-509744; 4.22 µM with Tipifarnib; 8.17 µM in the experiment with PFI-1; > 1.02 µM with GSK-1904529A; 2.46 µM with NG-25.

With EKVX (lung adenocarcinoma, adherent), the AUC with BMS-509744 stood at 0.932; with Tipifarnib it was 0.802; with PFI-1, 0.897; with GSK-1904529A, 0.955; with NG-25, 0.961. For the same cell line, the IC50 was > 10.2 µM with BMS-509744; > 16 µM with Tipifarnib; > 10 µM in the experiment with PFI-1; > 1.02 µM with GSK-1904529A; > 10.2 µM with NG-25.

The record behind these values is the supplement of paper PMC4967469.
